As a reminder, the % Inhibition is the drop in the measured response relative to a control, in per cent.

About 540 (0.36%) of roughly 150,000 compounds showed an effect of 50% or more. This is one part of the list.

The test concerns Plasmodium falciparum. As to the kind of experiment: Primary screen in NF54 nanoGlo assay, in single point, at 2uM, 72h; a lower Z score goes with more inhibition. It counts as functional, Erythrocyte. As to conditions: timepoint 72 hour.
With `CC(C)(C)c1ccc(NC(=O)N2C3CCC2COC3)cc1`, the “% Inhibition” value was determined as 11% and the Z score was -1.29.
In the case of `CC(C)CN1CCN(C(=O)c2nc3cnccc3s2)CC1=O`, the “% Inhibition” value is listed as -2% and the Z score worked out at 0.29.
The matching figures for `O=C(OCc1nc2ccc(F)cc2o1)c1scnc1C1CC1`: -1% and 0.18.
On to `COCC1(CNS(=O)(=O)C(C)C)CCCC1`, for which the “% Inhibition” value is listed as -7% and the Z score is 0.95.
The matching figures for `Cc1ncc2c(c1-c1noc(-c3ccccc3-c3nc[nH]n3)n1)CCNC2`: -9% and 1.25.
As to `CC1=CC(=[N+](CCO)CCO)C=C/C1=C(\c1ccc(N(CCO)CCO)cc1C)c1ccccc1Cl`, the “% Inhibition” value worked out at 86% and the Z score was -10.15.
The matching figures for `COCC(=O)NC1CN(C(=O)c2coc(C)c2)C1`: 0% and -0.07.
The matching figures for `CN(C(=O)Nc1ccc(-n2cnnn2)cc1)C1CCCCC1`: -1% and 0.1.
`COCCOc1ccccc1N1CCN(C(=O)CNC(=O)NC2CCCCC2)CC1`: the “% Inhibition” value is -12% and the Z score stood at 2.6.
On to `O=C(NC[C@@H]1COc2ccccc2C1)c1cnc[nH]c1=O`, for which the “% Inhibition” value turned out to be 2% and the Z score is listed as -0.27.
The matching figures for `COc1ccc(-c2nnc3c4c(cnn23)nnn4-c2ccc(Cl)cc2)cc1`: 0% and 0.
The matching figures for `O=C(Nc1ccc2c(c1)OCCO2)c1ccco1`: 8% and -0.9.
In the same order, the values of `CO[C@H]1CCCN(C(=O)NCC(C)(C)Oc2ccccc2)CC1` are -7% and 0.84.
`O=C(c1ccc2c(c1)OCCO2)N1CCN(c2ccccc2F)CC1`: the “% Inhibition” value is listed as -9% and the Z score was 1.3.
As for `CCOc1nc2c(c(C)nn2-c2ccccc2)c(C)c1CCC(=O)N1CCCCCC1`, the “% Inhibition” value is on record as -5% and the Z score is recorded as 0.79.
The matching figures for `CCc1nc(-c2ccccc2)nc(N2CCN(C(=O)COC)CC2)c1Cc1cc(C)ccc1C`: -14% and 1.69.
In the same order, the values of `COCCN(CC(=O)N1N=C(c2cccc(OC)c2)C[C@H]1c1ccc(Cl)cc1)C(=O)c1ccc(C(F)(F)F)cc1` are 0% and 0.01.
For the molecule `Cc1oc2c(c1C(=O)N1CCC(c3ncon3)CC1)C(=O)CCC2`, the “% Inhibition” value turned out to be 6% and the Z score is recorded as -1.16.
In the same order, the values of `CCN(CC)C1=Nc2ccccc2Oc2ccc(NC(=O)c3ccccc3Cl)cc21` are -12% and 1.54.
With `COC(=O)Nc1ccc(Br)cn1`, the “% Inhibition” value is given as -5% and the Z score is 0.78.
Consider `CCN(C)c1nc(N2CCN(c3ccccc3)CC2)nc2c1CN(C(=O)Nc1cccc(Cl)c1)CC2`, for which the “% Inhibition” value worked out at 0% and the Z score is reported as -0.03.
For the molecule `COCCn1cc(NC(=O)c2c[nH]nc2C2CC2)cn1`, the “% Inhibition” value was -5% and the Z score amounted to 0.74.
The matching figures for `CCN(C(=O)Cc1ccc(Cl)cc1Cl)c1ccc(C)nn1`: 1% and -0.22.
Turning to `Cc1nc([C@H](C)NS(=O)(=O)c2cccc3nsnc23)cs1`, the “% Inhibition” value was found to be 0% and the Z score is given as -0.05.
The matching figures for `COCC(=O)N1CCC2(CCN(Cc3ccccc3)CC2)C1`: 2% and -0.21.
The matching figures for `COc1ncc(NC(=O)c2cccc(Oc3ccc(C)nn3)c2)cn1`: -4% and 0.73.
Take `O=C(CCNC(=O)c1cnoc1-c1ccccc1)Nc1ccncc1`: the “% Inhibition” value is listed as -1% and the Z score was found to be 0.14.
In the same order, the values of `Cc1ccc(NS(=O)(=O)c2cc3n(c2)CCCNC3=O)c(C)c1` are 2% and -0.21.
In the case of `Cc1cnn(Cc2cc(C(=O)N3CC4(C[C@@H](C(=O)NC(C)C)N(C)C4)C3)no2)c1`, the “% Inhibition” value is on record as -3% and the Z score was 0.66.
On to `CCCn1cnc2ccc(-c3noc(-c4cccc(OC)c4)n3)cc21`, for which the “% Inhibition” value is recorded as -16% and the Z score is 1.67.
On to `CN1CCC(N(C)C2CCCCC2N(C)C(=O)CC2CCC2)CC1` (stereo not given), for which the “% Inhibition” value is reported as -3% and the Z score was found to be 0.39.
For the molecule `CCCc1n[nH]cc1C(=O)N1C[C@@H]2CC[C@H]1CN(Cc1c(C)noc1C)C2`, the “% Inhibition” value was -13% and the Z score is reported as 1.31.
For the molecule `CC1=C(C(=O)Nc2nn(C)cc2C#N)CCC1`, the “% Inhibition” value was -12% and the Z score came to 2.11.
In the same order, the values of `Cc1ccc(N2CCCN(Cc3ccc(C(C)C)cc3)C2=O)c(NC(=O)c2ccco2)c1` are 36% and -4.89.
With `CN(Cc1cccnc1)C(=O)C1CCC1`, the “% Inhibition” value is on record as -5% and the Z score came to 0.56.
As to `CCc1nnc([C@@H]2CC(F)(F)CN2C(=O)c2cc(C)oc2C)o1`, the “% Inhibition” value is on record as -5% and the Z score is 0.81.
The matching figures for `Cn1ccc2cccc(NC(=O)N3CCC(Oc4ccc(F)cc4F)CC3)c21`: 5% and -0.79.
As to `O=C(Cc1c[nH]c2ccccc12)Nc1ccc(OCc2ccccc2)cc1`, the “% Inhibition” value was determined as 2% and the Z score was -0.38.
With `Cn1nc(CCC(=O)N2CCCCC2)c2c1CCN(CC1CCCCC1)C2`, the “% Inhibition” value is given as -11% and the Z score was determined as 1.34.
As for `Cc1cnccc1NC(=O)NCCC(=O)Nc1ccccc1`, the “% Inhibition” value is -3% and the Z score was determined as 0.48.
The matching figures for `CCN1CCCN(c2nc3ccccc3o2)CC1`: -1% and 0.15.
Regarding `CCn1nc([C@@H]2CCCN2S(=O)(=O)c2ccc(F)c(C)c2)c2c1CCOC2`, the “% Inhibition” value is reported as 4% and the Z score was -0.43.
In the same order, the values of `Cc1ccc2nc(C3CC3)cc(C(=O)N3CC(n4cc(C(N)=O)nn4)C3)c2c1` are -2% and 0.24.
In the same order, the values of `O=C(NC1CCCCC1)N1CC(c2noc(COCc3ccccc3)n2)C1` are -13% and 1.54.
The matching figures for `Cc1nocc1NC(=O)N[C@H]1CC12CCCCC2`: -3% and 0.63.
Take `CC1=C(C(=O)c2ccccc2)[C@@](NC(=O)c2cccnc2)(C(F)(F)F)C(=O)N1CCc1ccccc1`: the “% Inhibition” value is recorded as -6% and the Z score is 0.76.
The matching figures for `COC(=O)NCC(=O)N(CCN1CCCC1)Cc1ccccc1`: -5% and 0.64.
The matching figures for `O=S1(=O)CCC(S(=O)(=O)Oc2cccc3cccnc23)CC1`: -7% and 0.95.
The matching figures for `CN(Cc1csc(-c2ccccc2)n1)C(=O)c1cnn2c1CCCC2`: -10% and 1.83.
As for `C[C@@H](C(=O)O)N(C(=O)c1n[nH]c2ccccc2c1=O)C1CC1`, the “% Inhibition” value is given as -11% and the Z score stood at 1.42.
In the case of `CN(CCO)C[C@H](O)COc1c(Cl)cccc1Cl`, the “% Inhibition” value is given as -8% and the Z score is 1.
In the same order, the values of `CC(=O)N1C[C@@H]2CCN(C(=O)c3ccc4c(c3)OCO4)C[C@]2(CO)C1` are 4% and -0.57.
The matching figures for `CC1CCCC(CO)N1Cc1nc(-c2ccco2)no1` (stereo not given): -15% and 1.86.
As to `N/C(=N\NC(=O)c1cnccn1)c1ccccn1`, the “% Inhibition” value is on record as 0% and the Z score stood at 0.04.
Take `Cc1cccc(Cn2nc(C)cc2NC(=O)[C@H]2CC[C@@H](O)CC2)c1`: the “% Inhibition” value is on record as -7% and the Z score turned out to be 1.26.

The values are drawn from ChEMBL document CHEMBL4888484, “Replenishing the malaria drug discovery pipeline: Screening and hit evaluation of the MMV Hit Generation Library 1 (HGL1) against asexual blood stage Plasmodium falciparum ,using a nano luciferase reporter read-out” (2022).
